# In the supplement of paper PMC8728848:
# Some of the results follow.
# B1: Jacalin (Artocarpus integrifolia) (protein)
# chain: MAYSSLLSLSVLALLFSISSADTRKWFLANGINQNPIGIIEAAVGVSEDLLNLNGMEAKNDEQSGISQTVIVGPWGAKVSTSSNGKAFDDGAFTGIREINLSYNKETAIGDFQVVYDLNGSPYVGQNHKSFITGFTPVKISLDFPSEYIMEVSGYTGNVSGYVVVRSLTFKTNKKTYGPYGVTSGTPFNLPIENGLIVGFKGSIGYWLDYFSMYLSL
# Tests used:
# Assay in all cases: glycan array binding signal (z-score within array); higher = stronger binding
# Details in all cases: glycan notation: IUPAC condensed, linker removed
# [1] = target: Gal(b1-4)GlcNAc(b1-3)Gal(b1-4)GlcNAc(b1-2)[Gal(b1-4)GlcNAc(b1-3)Gal(b1-4)GlcNAc(b1-6)]Man(a1-6)[Gal(b1-4)GlcNAc(b1-3)Gal(b1-4)GlcNAc(b1-2)Man(a1-3)]Man(b1-4)GlcNAc(b1-4)[Fuc(a1-6)]GlcNAc
# Outline: (§1)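 From the Consortium for Functional Glycomics database, 3228 arrays were curated, keeping only those whose protein sequence was available. Binding is given as a within-array Z-score averaged across arrays sharing a protein sequence and across linkers. Negative Z-scores can be read as non-binding.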
# [2] = target: Gal(b1-4)GlcNAc(b1-3)Gal(b1-4)GlcNAc(b1-3)Gal(b1-4)GlcNAc
# Outline: as §1
# [3] = target: Gal(b1-4)GlcNAc(b1-3)Gal(b1-4)GlcNAc(b1-3)Gal(b1-4)GlcNAc(b1-2)Man(a1-3)[Gal(b1-4)GlcNAc(b1-3)Gal(b1-4)GlcNAc(b1-3)Gal(b1-4)GlcNAc(b1-2)Man(a1-6)]Man(b1-4)GlcNAc(b1-4)GlcNAc
# Outline: as §1
# [4] = target: Gal(b1-4)GlcNAc(b1-3)Gal(b1-4)GlcNAc(b1-3)Gal(b1-4)GlcNAc(b1-2)Man(a1-3)[Gal(b1-4)GlcNAc(b1-3)Gal(b1-4)GlcNAc(b1-3)Gal(b1-4)GlcNAc(b1-2)Man(a1-6)]Man(b1-4)GlcNAc(b1-4)[Fuc(a1-6)]GlcNAc
# Outline: as §1
# [5] = target: Gal(b1-4)GlcNAc(b1-3)Gal(b1-4)GlcNAc(b1-3)Gal(b1-4)GlcNAc(b1-2)[Gal(b1-4)GlcNAc(b1-3)Gal(b1-4)GlcNAc(b1-3)Gal(b1-4)GlcNAc(b1-6)]Man(a1-6)[Gal(b1-4)GlcNAc(b1-3)Gal(b1-4)GlcNAc(b1-3)Gal(b1-4)GlcNAc(b1-2)Man(a1-3)]Man(b1-4)GlcNAc(b1-4)[Fuc(a1-6)]GlcNAc
# Outline: as §1
# [6] = target: Gal(b1-4)GlcNAc(b1-3)Gal(b1-4)GlcNAc(b1-3)Gal(b1-4)GlcNAc(b1-3)Gal(b1-4)GlcNAc(b1-2)Man(a1-3)[Gal(b1-4)GlcNAc(b1-3)Gal(b1-4)GlcNAc(b1-3)Gal(b1-4)GlcNAc(b1-3)Gal(b1-4)GlcNAc(b1-2)Man(a1-6)]Man(b1-4)GlcNAc(b1-4)GlcNAc
# Outline: as §1
# [7] = target: Gal(b1-4)GlcNAc(b1-3)Gal(b1-4)GlcNAc(b1-3)Gal(b1-4)GlcNAc(b1-3)Gal(b1-4)GlcNAc(b1-2)Man(a1-3)[Gal(b1-4)GlcNAc(b1-3)Gal(b1-4)GlcNAc(b1-3)Gal(b1-4)GlcNAc(b1-3)Gal(b1-4)GlcNAc(b1-2)Man(a1-6)]Man(b1-4)GlcNAc(b1-4)[Fuc(a1-6)]GlcNAc
# Outline: as §1
# [8] = target: Gal(b1-4)GlcNAc(b1-3)Gal(b1-4)GlcNAc(b1-3)Gal(b1-4)GlcNAc(b1-3)Gal(b1-4)GlcNAc(b1-2)[Gal(b1-4)GlcNAc(b1-3)Gal(b1-4)GlcNAc(b1-3)Gal(b1-4)GlcNAc(b1-3)Gal(b1-4)GlcNAc(b1-6)]Man(a1-6)[Gal(b1-4)GlcNAc(b1-3)Gal(b1-4)GlcNAc(b1-3)Gal(b1-4)GlcNAc(b1-3)Gal(b1-4)GlcNAc(b1-2)Man(a1-3)]Man(b1-4)GlcNAc(b1-4)[Fuc(a1-6)]GlcNAc
# Outline: as §1
# [9] = target: Gal(b1-4)GlcNAc(b1-3)Gal(b1-4)GlcNAc(b1-3)Gal(b1-4)GlcNAc(b1-3)Gal(b1-4)GlcNAc(b1-3)Gal(b1-4)GlcNAc(b1-2)Man(a1-3)[Gal(b1-4)GlcNAc(b1-3)Gal(b1-4)GlcNAc(b1-3)Gal(b1-4)GlcNAc(b1-3)Gal(b1-4)GlcNAc(b1-3)Gal(b1-4)GlcNAc(b1-2)Man(a1-6)]Man(b1-4)GlcNAc(b1-4)GlcNAc
# Outline: as §1
# [10] = target: Gal(b1-4)GlcNAc(b1-3)Gal(b1-4)GlcNAc(b1-3)Gal(b1-4)GlcNAc(b1-3)Gal(b1-4)GlcNAc(b1-3)Gal(b1-4)GlcNAc(b1-2)Man(a1-3)[Gal(b1-4)GlcNAc(b1-3)Gal(b1-4)GlcNAc(b1-3)Gal(b1-4)GlcNAc(b1-3)Gal(b1-4)GlcNAc(b1-3)Gal(b1-4)GlcNAc(b1-2)Man(a1-6)]Man(b1-4)GlcNAc(b1-4)[Fuc(a1-6)]GlcNAc
# Outline: as §1
# [11] = target: Gal(b1-4)GlcNAc(b1-3)Gal(b1-4)GlcNAc(b1-3)Gal(b1-4)GlcNAc(b1-3)Gal(b1-4)GlcNAc(b1-3)Gal(b1-4)GlcNAc(b1-2)[Gal(b1-4)GlcNAc(b1-3)Gal(b1-4)GlcNAc(b1-3)Gal(b1-4)GlcNAc(b1-3)Gal(b1-4)GlcNAc(b1-3)Gal(b1-4)GlcNAc(b1-6)]Man(a1-6)[Gal(b1-4)GlcNAc(b1-3)Gal(b1-4)GlcNAc(b1-3)Gal(b1-4)GlcNAc(b1-3)Gal(b1-4)GlcNAc(b1-3)Gal(b1-4)GlcNAc(b1-2)Man(a1-3)]Man(b1-4)GlcNAc(b1-4)[Fuc(a1-6)]GlcNAc
# Outline: as §1
# [12] = target: Gal(b1-4)GlcNAc(b1-3)Gal(b1-4)GlcNAc(b1-3)Gal(b1-4)GlcNAc(b1-3)Gal(b1-4)GlcNAc(b1-3)Gal(b1-4)GlcNAc(b1-3)Gal(b1-4)GlcNAc(b1-2)Man(a1-3)[Gal(b1-4)GlcNAc(b1-3)Gal(b1-4)GlcNAc(b1-3)Gal(b1-4)GlcNAc(b1-3)Gal(b1-4)GlcNAc(b1-3)Gal(b1-4)GlcNAc(b1-3)Gal(b1-4)GlcNAc(b1-2)Man(a1-6)]Man(b1-4)GlcNAc(b1-4)GlcNAc
# Outline: as §1
# [13] = target: Gal(b1-4)GlcNAc(b1-3)Gal(b1-4)GlcNAc(b1-3)GalNAc
# Outline: as §1
# [14] = target: Gal(b1-4)GlcNAc(b1-3)Gal(b1-4)GlcNAc(b1-3)[Gal(b1-4)GlcNAc(b1-3)Gal(b1-4)GlcNAc(b1-6)]GalNAc
# Outline: as §1
# [15] = target: Gal(b1-4)GlcNAc(b1-3)Gal(b1-4)GlcNAc(b1-6)[Gal(b1-3)]GalNAc
# Outline: as §1
# [16] = target: Gal(b1-4)GlcNAc(b1-3)Gal(b1-4)[Fuc(a1-3)]GlcNAc(b1-3)Gal(b1-4)[Fuc(a1-3)]GlcNAc
# Outline: as §1
# [17] = target: Gal(b1-4)GlcNAc(b1-3)GalNAc
# Outline: as §1
# [18] = target: Gal(b1-4)GlcNAc(b1-3)[Fuc(a1-3)GlcNAc(b1-6)]Gal(b1-4)Glc
# Outline: as §1
# [19] = target: Gal(b1-4)GlcNAc(b1-3)[Gal(b1-4)GlcNAc(b1-6)]Gal(b1-4)GlcNAc
# Outline: as §1
# [20] = target: Gal(b1-4)GlcNAc(b1-3)[Gal(b1-4)GlcNAc(b1-6)]GalNAc
# Outline: as §1
# [21] = target: Gal(b1-4)GlcNAc(b1-3)[GlcNAc(b1-6)]Gal(b1-4)GlcNAc
# Outline: as §1
# [22] = target: Gal(b1-4)GlcNAc(b1-6)Gal(b1-4)GlcNAc
# Outline: as §1
# [23] = target: Gal(b1-4)GlcNAc(b1-6)Gal(b1-4)GlcNAc(b1-6)GalNAc
# Outline: as §1
binder,measurement,setting,value
B1,glycan array binding signal (z-score),[1],0.097
same,glycan array binding signal (z-score),[2],-0.284
same,glycan array binding signal (z-score),[3],0.053
same,glycan array binding signal (z-score),[4],0.144
same,glycan array binding signal (z-score),[5],-0.041
same,glycan array binding signal (z-score),[6],-0.217
same,glycan array binding signal (z-score),[7],0.12
same,glycan array binding signal (z-score),[8],-0.081
same,glycan array binding signal (z-score),[9],-0.257
same,glycan array binding signal (z-score),[10],0.147
same,glycan array binding signal (z-score),[11],-0.06
same,glycan array binding signal (z-score),[12],-0.235
same,glycan array binding signal (z-score),[13],1.14
same,glycan array binding signal (z-score),[14],-0.025
same,glycan array binding signal (z-score),[15],0.001
same,glycan array binding signal (z-score),[16],-0.244
same,glycan array binding signal (z-score),[17],1.83
same,glycan array binding signal (z-score),[18],-0.219
same,glycan array binding signal (z-score),[19],-0.246
same,glycan array binding signal (z-score),[20],-0.347
same,glycan array binding signal (z-score),[21],-0.253
same,glycan array binding signal (z-score),[22],-0.256
same,glycan array binding signal (z-score),[23],-0.354
